Assay results taken from the supplement of paper PMC6089552.
Among all 3,200 compounds or so, about 300 (9.4%) showed activity. The entries are a selection whose mix differs from that of the whole data set.

Tested on: A673/TR/shEF
Assay: cell viability (LOESS-normalised, relative to median of negative controls) (log2 ratio); higher = more viable cells (less compound effect), active = hit call of the paper (over 3 MAD below the median)
Conditions: treatment time: 72 h
Outline: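 A673/TR/shEF Ewing sarcoma cells were plated at 1,500 per well in 384-well plates and cultured with or without doxycycline, added 24 h before compounds, to induce EWS-FLI1 shRNA knockdown. Library compounds at two or more concentrations, alongside DMSO controls, were applied for three days. Cell viability was measured by CellTiter-Glo luminescence on an Envision reader. Readings were LOESS-corrected per plate, divided by the median of negative controls and log2-transformed, and hits were wells lying at least three median absolute deviations from the median of all screened wells.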

[1] = 0.25 µM, library screen: screen2, EWS-FLI1 expression: high (no doxycycline)
[2] = 0.25 µM, library screen: screen2, EWS-FLI1 expression: low (doxycycline-induced shRNA knockdown)
[3] = 2.5 µM, library screen: screen2, EWS-FLI1 expression: high (no doxycycline)
[4] = 2.5 µM, library screen: screen2, EWS-FLI1 expression: low (doxycycline-induced shRNA knockdown)
[5] = 0.25 µM, library screen: screen1, EWS-FLI1 expression: high (no doxycycline)
[6] = 0.25 µM, library screen: screen1, EWS-FLI1 expression: low (doxycycline-induced shRNA knockdown)
[7] = 2.5 µM, library screen: screen1, EWS-FLI1 expression: high (no doxycycline)
[8] = 2.5 µM, library screen: screen1, EWS-FLI1 expression: low (doxycycline-induced shRNA knockdown)

Measured: cell viability (log2)

COc1nc(C)nc(Cl)c1NC1=NCCN1
inactive: [1] -0.000312 | [2] 0.057 | [3] 0.0861 | [4] 0.137

O=C(CCCN1CC=C(n2c(=O)[nH]c3ccccc32)CC1)c1ccc(F)cc1
inactive: [5] -0.004 | [6] 0.0501 | [1] 0.178 | [2] 0.0521 | [7] 0.0619 | [8] -2.38 | [3] 0.187 | [4] 0.0853

CC(/C=C/C=C(\C)c1cc(C(C)(C)C)cc(C(C)(C)C)c1)=C\C(=O)O
inactive: [1] 0.134 | [2] 0.0751 | [3] 0.0952 | [4] 0.134

Oc1c(I)cc(I)c2cccnc12
inactive: [5] 0.0428 | [6] -0.013 | [7] 0.0346 | [8] -0.603

C#CCN(C)Cc1ccccc1
active: [3] -1.76 | [4] -2.08
inactive: [5] 0.0858 | [6] 0.0954 | [1] 0.078 | [2] -0.0346 | [7] 0.175 | [8] 0.102

O=c1[nH]c2ccccc2c2ccccc12
inactive: [1] 0.226 | [2] 0.0587 | [3] 0.237 | [4] 0.0634

COc1cc(/C=C2\SC(NC(C)=O)=NC2=O)cc(Br)c1OC
inactive: [5] 0.0313 | [6] 0.0267 | [7] 0.0885 | [8] 0.0962

COc1ccc2cc(CCC(C)=O)ccc2c1
inactive: [5] 0.12 | [6] -0.0168 | [7] 0.127 | [8] 0.088

Cc1cccc(/C=C/c2ccccc2)n1
inactive: [1] 0.22 | [2] 0.057 | [3] 0.149 | [4] 0.0404

CCCCCC(C)N (stereo not given)
inactive: [5] 0.0593 | [6] 0.106 | [7] 0.159 | [8] 0.171

CCOc1ccc(C(=O)c2cc(O)c(OC)c(OC)c2O)cc1
inactive: [5] 0.0714 | [6] 0.0518 | [7] 0.162 | [8] 0.129

CCn1cc(C(=O)O)c(=O)c2ccc(C)nc21
inactive: [5] 0.0182 | [6] 0.124 | [1] 0.0982 | [2] 0.00565 | [7] 0.165 | [8] 0.105 | [3] 0.151 | [4] 0.0813

O=C(Cn1ccnc1[N+](=O)[O-])NCCO
inactive: [5] 0.106 | [6] 0.0865 | [7] 0.111 | [8] 0.106

CC(=O)OCC(COC(C)=O)OC(C)=O
inactive: [5] 0.0384 | [6] 0.171 | [7] 0.188 | [8] 0.227

NCCC(=O)NCCc1cnc[nH]1
inactive: [1] 0.22 | [2] 0.125 | [3] 0.121 | [4] 0.115

N=C(N)SCCc1cccc(CCSC(=N)N)c1
inactive: [1] 0.11 | [2] 0.0585 | [3] 0.178 | [4] 0.15

O=c1cc(-c2ccc(O)cc2)oc2cc(O)cc(O)c12
inactive: [5] 0.098 | [6] -0.000182 | [1] 0.276 | [2] 0.08 | [7] 0.178 | [8] 0.114 | [3] 0.112 | [4] 0.178

CCOc1cccc(C(=O)c2ccc(O)c(O)c2O)c1
inactive: [5] 0.0703 | [6] 0.005 | [7] 0.0783 | [8] 0.0694

NCCC[C@H](N)C(=O)O
inactive: [5] 0.0644 | [6] -0.0297 | [7] 0.00838 | [8] 0.0435

NC(=O)N1c2ccccc2C=Cc2ccccc21
inactive: 0.103 µM, library screen: screen3, EWS-FLI1 expression: high (no doxycycline) 0.0629 | 0.103 µM, library screen: screen3, EWS-FLI1 expression: low (doxycycline-induced shRNA knockdown) 0.0878 | [5] 0.153 | [6] -0.0111 | [1] 0.157 | [2] 0.0743 | 0.308 µM, library screen: screen3, EWS-FLI1 expression: high (no doxycycline) 0.058 | 0.308 µM, library screen: screen3, EWS-FLI1 expression: low (doxycycline-induced shRNA knockdown) -0.00705 | 0.926 µM, library screen: screen3, EWS-FLI1 expression: high (no doxycycline) 0.00665 | 0.926 µM, library screen: screen3, EWS-FLI1 expression: low (doxycycline-induced shRNA knockdown) 0.0796 | [7] 0.148 | [8] 0.193 | [3] 0.0205 | [4] 0.049 | 2.8 µM, library screen: screen3, EWS-FLI1 expression: high (no doxycycline) 0.15 | 2.8 µM, library screen: screen3, EWS-FLI1 expression: low (doxycycline-induced shRNA knockdown) 0.0836 | 8.3 µM, library screen: screen3, EWS-FLI1 expression: high (no doxycycline) 0.12 | 8.3 µM, library screen: screen3, EWS-FLI1 expression: low (doxycycline-induced shRNA knockdown) 0.00813 | 25 µM, library screen: screen3, EWS-FLI1 expression: high (no doxycycline) 0.151 | 25 µM, library screen: screen3, EWS-FLI1 expression: low (doxycycline-induced shRNA knockdown) 0.183

CN(C)CCN(Cc1cccs1)c1ccccn1
inactive: [5] 0.119 | [6] 0.101 | [1] 0.0797 | [2] 0.0374 | [7] 0.197 | [8] 0.294 | [3] 0.0957 | [4] 0.089
